Test results as given in PubChem BioAssay AID1508624 (National Center for Advancing Translational Sciences (NCATS), 2021).
Out of some 48,000 compounds screened, about 120 (0.25%) were called active. Roughly 4% stayed inconclusive and do not appear here. The call rests on the fitted dose curve; in most records, active means well fitted activation curve with a large enough effect; inconclusive means small, poorly fitted or top-dose-only effect, or another doubt; inactive means no such curve, though single readings can be large or run the other way. This is one part of the list.

Test: Primary qHTS for Identification of Small Molecule Activators of Huntingtin-Antisense Promoter Activity; further: nearly all actives have a fitted effect of over 55% in size
Conditions: HEK293 HTT-AS promoter firefly luciferase reporter (activity 0% = vehicle and -100% = no light), 24 h; series mostly up to 57.5 µM; activity change, positive = activation: at the top concentration
In short: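 Firefly luciferase readout (Dual-Glo, 10 min RT) after 24 h, 37 °C compound exposure (final up to 57.5 uM) of HEK293 reporter cells cultured 24 h beforehand; PTC124 at 50 uM final as control inhibitor; activity scaled vehicle 0%, zero RLU -100%.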

Activity change, positive = activation, inactive:
O=C(Nc1cc(C(F)(F)F)ccc1Cl)c1nc2ccccc2nc1N1CCCCC1 16.1%
COC(=O)c1cccnc1-n1c(=O)c2cccnc2n(CC(=O)Nc2ccccc2F)c1=O 4.62%
CCc1ccccc1NC(=O)c1sc2nc3c(cc2c1N)CN(Cc1ccccc1)CC3 -41.8%
CCOC(=O)c1c(C)oc2nc(C)nc(NCc3ccc(OC)cc3OC)c12 -5.63%
O=C(CSc1nncn2c1cc1sccc12)Nc1ccc(Br)cc1F -6.77%
O=C(Cn1c(=O)nc(-c2ccccc2)c2ccccc21)NCc1ccc(Cl)cc1 -20.5%
CCc1ccc(NC(=O)CCn2nc(C)c(S(=O)(=O)N3CCCCC3)c2C)cc1 -27.7%
CCOC(=O)C1(C)C=C(Nc2cccc(C(=O)O)c2)C(=O)N1c1cccc(C(=O)O)c1 (stereo unspecified) 12.4%
COc1ccc(-c2noc(-c3ccc(N4CCN(c5ccccc5)CC4)c([N+](=O)[O-])c3)n2)cc1OC -8.18%
Cc1ccc(CNS(=O)(=O)c2ccc3[nH]c4c(c3c2)CCCC4)cc1 -16.2%
Cc1cc(F)ccc1NS(=O)(=O)c1ccc(-n2cccn2)cc1 -39.8%
O=C1CS(=O)(=O)C2(C(=O)N(Cc3ccccc3)c3ccccc32)N1c1ccccc1 (stereo unspecified) -12.8%
Cc1cn[nH]c1
Cc1ccc(CCNC(=O)c2ccc3c(c2)nc2n3CCC(C)C2)cc1 (stereo unspecified) -2.64%
COc1cc2c(cc1OC)C(COc1ccccc1OC)N(C(=O)COc1ccc(Cl)cc1)CC2 (stereo unspecified) -32.6%
O=C(C1CCN(c2ncnc3c2nc2n3CCCCC2)CC1)N1CCN(c2cccc(Cl)c2)CC1 -47.8%
COc1ccc(OC)c(CNC(=O)Cc2ccc(NC(=O)N3CCSc4ncccc43)cc2)c1 -29.1%
Cc1cc(C)n(CCc2nc3c4ccccc4nc(N4CCN(c5ccccc5)CC4)n3n2)n1 -7.9%
Cc1ccc(NC(=O)CSc2ccc(-c3cccs3)nn2)cc1Cl -14.5%
CN(c1ccccc1)S(=O)(=O)c1ccc(NC(=O)c2cc(=O)c3ccccc3o2)cc1 6.81%
COCC(=O)NCc1nc2cccnc2n1Cc1ccc(F)cc1 -2.21%
COc1ccc(Nc2cc(C(=O)NCCCN3CCN(c4ccc(OC)cc4)CC3)c3ccccc3n2)cc1 -40.4%
O=C(CCn1cnnn1)Nc1ccc(F)cc1 42.6%
Cc1oc(C)c2c(=O)cc(-c3ccc4c(c3)OCO4)cc(OC(=O)c3cccc(Br)c3)c12 -21%
Cc1ccc(Cn2c(CNS(=O)(=O)c3ccc(F)c(Cl)c3)nc3cccnc32)cc1 -21.2%
COc1ccc(-n2ncc(C(=O)NCCc3ccsc3)c2C2CCN(C(=O)OC(C)(C)C)CC2)cc1 -6.97%
Cc1cc(NC(=O)c2cccc(Cl)c2)ccc1-c1cc2ccccc2oc1=O 17.7%
C=CCc1ccccc1OCCn1c(C2CC(=O)N(Cc3ccc(F)cc3)C2)nc2ccccc21 (stereo unspecified) -40.2%
Cc1ccc(C)c(NC(=O)N2CCc3cc(S(=O)(=O)N4CCC(C)CC4)ccc32)c1 -18.8%
Cc1ccc2nc(-c3cccc(Cl)c3)c(Nc3ccc4c(c3)OCO4)n2c1 -3.88%
CC(Oc1ccccc1)C(=O)OCc1cc(=O)n2nc(C(C)C)sc2n1 (stereo unspecified) -10.4%
COc1ccccc1CCNC(=O)C(=O)NCC(c1cccs1)S(=O)(=O)c1ccc(F)cc1 (stereo unspecified) -32.8%
CCc1ccc(S(=O)(=O)c2nnn3c2nc(NCc2cccc(OC)c2)c2cc(Cl)ccc23)cc1 -18.5%
COc1ccccc1CNC(=O)c1ccc2c(c1)nnn2C1CCCC1 21.3%
Cc1ccc(NC(=O)N2CCN3CCCCC3C2)cc1F (stereo unspecified) 6.78%
Cc1ccsc1CN(C(=O)c1ccc(Br)cc1)C1CCS(=O)(=O)C1 (stereo unspecified) -9.45%
O=C(Nc1cccc(-c2nc3ccccc3[nH]2)c1)c1ccccc1F -13%
COc1ccccc1NC(=O)Cn1cc(C(=O)c2ccncc2)c(=O)c2cc(C)ccc21 -10.4%
COc1ccc(Cl)cc1NC(=O)C1CCN(S(=O)(=O)c2ccc3c(c2)CCCN3C(=O)C2CCC2)CC1 15.9%
Cc1cc(=O)[nH]c2nnc(SCC(=O)Nc3ccc(F)cc3F)n12 0.374%
COc1ccc(CCNc2nc(SCc3ccc(F)cc3)nc3ccccc23)cc1OC -29.7%
CC1=C(c2ccc(C)c(C)c2)S(=O)(=O)N=C1N1CCC(C(=O)Nc2ccc(Cl)cc2)CC1 -25.1%
CCc1nn(CC(=O)N2CCN(c3cc(C)ccc3C)CC2)c(=O)c2cc3occc3n12 -13.1%
CCc1ccc(-c2nc(SCC(=O)NCC3CCCO3)c(-c3ccc(F)cc3)[nH]2)cc1 (stereo unspecified) -11.7%
CNC(=O)c1ccc(CSc2nc3cccnc3n2Cc2cccc(F)c2)cc1 -9.26%
Fc1ccccc1N1CCN(c2ncc3c(n2)CCN(Cc2ccc(Br)s2)C3)CC1 -24.1%
CCOc1ccccc1NC(=O)CN1C(=O)COc2ccc(S(=O)(=O)Nc3ccccc3)cc21 -21.5%
O=C(Cn1c(=O)nc(-c2ccccc2F)c2cc(Cl)ccc21)Nc1ccccc1C(F)(F)F 50.8%
Cc1ccc(-c2nc3nc(C)cc(N4CCN(c5cccc(C)c5)C(C)C4)n3n2)cc1 (stereo unspecified) 6.67%
Cc1ccc(NC(=O)C2CCCN(S(=O)(=O)c3ccc4[nH]c(=O)ccc4c3)C2)cc1C (stereo unspecified) -10.5%
CCCCN(C)CCCNC(=O)CN1C(=O)CSc2ccc(S(=O)(=O)N3CCOCC3)cc21 -0.569%
O=C(NCc1cccs1)c1nn(-c2ccccc2F)nc1CO -29.9%
CCCCNC(=O)Cn1ncc2c(C)n(Cc3cccc(Cl)c3)c(C)c2c1=O -25.8%
O=C(Nc1ccc(S(=O)(=O)N2CCCCC2c2cccnc2)cc1)c1ccc(F)cc1 (stereo unspecified) -43%
COc1ccc(NC(=O)c2cc(S(=O)(=O)N3CCCCC3)cn2C)cc1Cl -23.1%
CCCC(CCC)C(=O)Nc1nnc2n1CCS2 -17.5%
Cc1cccc(N(C)C(=O)c2cc(S(=O)(=O)N3CCCCC3)c[nH]2)c1 -18%
O=C(Nc1ccc(Cl)cc1)c1cc2c(Cl)nc3ccccc3c2s1 -17.1%
CN(C)c1ccc(-c2noc(C3CC(=O)N(c4ccc5c(c4)OCCO5)C3)n2)cc1 (stereo unspecified) -32.9%
COc1ccccc1C(=O)N1c2ccccc2C(C)(c2ccc(Cl)cc2)CC1(C)C (stereo unspecified) -50.1%
COC(=O)CSc1nc2sc3c(c2c(=O)n1Cc1ccccc1)CCC(C(C)(C)C)C3 (stereo unspecified) 5.56%
COc1cc(C(=O)OCCCN2CCCN(CCCOC(=O)c3cc(OC)c(OC)c(OC)c3)CC2)cc(OC)c1OC -17.1%
CCc1ccc(CNC(=O)c2nn(-c3ccc(OC)c(Cl)c3)c(=O)c3c2c2ccccc2n3C)cc1 -6.94%
COc1ccc(-c2c3c(nc4sc(C(=O)Nc5ccccc5F)c(N)c24)CC(C)(C)CC3=O)cc1 10%
CCN(Cc1ccccc1)C(=O)CN1C(=O)CSc2ccc(S(=O)(=O)N(CC)CC)cc21 -7.24%
Cc1cc(C)cc(NC(=O)c2ccc3c(O)c(S(=O)(=O)c4ccccc4)c(=O)[nH]c3c2)c1 -11.8%
COc1cc(Cl)c(C)cc1NC(=O)c1ccc(CN2C(=O)CCn3nc(C)cc32)cc1 -12.5%
Cc1c(Cl)cccc1NC(=O)CSc1ncc(S(=O)(=O)c2ccc(C(C)C)cc2)c(=O)[nH]1 -13.5%
CCC1(c2cnc[nH]2)Cc2ccccc2C1 -12%
COC(=O)c1ccccc1NC(=O)C1(c2cccs2)CCOCC1 -8.43%
CCOC(=O)c1c(C)[nH]c(C)c1S(=O)(=O)N1CCCC(C(=O)Nc2ccc(C)c(N(C)C)c2)C1 (stereo unspecified) -18.5%
CCOC(=O)c1[nH]c(C)c(CCC(=O)NCc2cccc(C)c2)c1C -6.9%
Cc1ccc(OCC(=O)N(Cc2ccco2)c2ccccn2)cc1 -9.12%
CCNC(=O)C1CCCN(c2nnc(C)c3c(C)n(-c4ccc(C)cc4)nc23)C1 (stereo unspecified) -6.43%
Oc1c(C(c2ccccc2Cl)N2CCOCC2)sc2nc(-c3ccco3)nn12 (stereo unspecified) -6.93%
CCC(=O)N1CCc2cc(CNC(=O)Nc3cc(C)ccc3C)ccc21 -5.85%
Cc1cccc(CNC(=O)CN2C(=O)C3CCCCN3c3ccc(C(=O)N4CCCC4)cc32)c1 (stereo unspecified) -11%
Cc1ccc(-c2nnc(Nc3ccc(Cl)c(Cl)c3)c3ccccc23)cc1S(=O)(=O)N(C)C -42.6%
Cc1ccc(C(=O)N2CCN(c3ccc(F)cc3)CC2)cc1NC(=O)c1nsc2ccccc12 22.1%
CCNC(=O)c1c(NC(=O)Cc2coc3cc(C)ccc23)sc2c1CCCC2 -10.6%
CCn1c(C(=O)NCc2ccc(OC)cc2)cc2sc(Cl)cc21 -27.7%
CCc1ccccc1NC(=O)Cc1cn(C)c2ccccc12 -12%
O=C(Nc1c(O)c2ccccc2oc1=O)c1cccc(F)c1 -9.69%
Cc1ccc(Nc2ncnc3onc(C)c23)cc1Cl -14.1%
CCOc1ccc(S(=O)(=O)Nc2cccc(C)c2)c2cccnc12 -27.2%
O=c1[nH]c2ccc(NCc3ccc(-c4ccc(Cl)cc4)o3)cc2[nH]1 -18.7%
CCOc1ccccc1Nc1nc(-c2ccc(C)cc2)c(CC(=O)O)s1 -11.1%
COc1ccc(CN(C(=O)Nc2cccc(OC)c2)C2CCN(C(C)=O)CC2)cc1 -8.54%
Cc1ccc(NC(=O)CN2C(=O)CC(c3ccc(F)cc3)=Nc3ccccc32)cc1F -21.2%
COc1ccc(C2c3c(oc4ccc(Cl)cc4c3=O)C(=O)N2CCCN(C)C)cc1OC (stereo unspecified) 2.68%
COc1cccc(CNC(=O)CN2C(=O)N(c3c(C)cccc3C)S(=O)(=O)c3ccccc32)c1OC -37.7%
COc1ccc(OC)c(NC(=O)C(C)n2nc(C)c3c(C)n(-c4ccccc4)nc3c2=O)c1 (stereo unspecified) -13.4%
COc1ccc2c(c1)CCc1c(C(=O)Nc3c(C)nn(Cc4ccc(Cl)cc4)c3C)noc1-2 -32%
CC1(C)C(N(O)C(=O)Nc2ccc(Cl)cc2)N(c2ccc(Cl)cc2)C(=O)N1CC(=O)NN=CC=Cc1ccc([N+](=O)[O-])o1 (stereo unspecified) -31.8%
CC[N+](C)(CC)CCOC(=O)C(O)(c1ccccc1)C1CCCCC1 (stereo unspecified) -0.0759%
CO[C@H]1C[C@@H]2CC[C@@H](C)[C@@](O)(O2)C(=O)C(=O)N2CCCC[C@@H]2C(=O)O[C@H]([C@@H](C)C[C@@H]2CC[C@H](O)[C@H](OC)C2)CC(=O)[C@H](C)C=C(C)[C@@H](O)[C@@H](OC)C(=O)[C@H](C)C[C@H](C)C=CC=CC=C1C -2.92%
